# In the supplement of paper PMC3334620:
# The full ranking holds about 33,000 sequences; the median of “E-score (-0.5 to 0.5)” is about -0.043, and the highest 2% start at about 0.37. The list shows a part of the results.
# Target: T1, Upc2 (UniProt Q12151)
# T1 sequence: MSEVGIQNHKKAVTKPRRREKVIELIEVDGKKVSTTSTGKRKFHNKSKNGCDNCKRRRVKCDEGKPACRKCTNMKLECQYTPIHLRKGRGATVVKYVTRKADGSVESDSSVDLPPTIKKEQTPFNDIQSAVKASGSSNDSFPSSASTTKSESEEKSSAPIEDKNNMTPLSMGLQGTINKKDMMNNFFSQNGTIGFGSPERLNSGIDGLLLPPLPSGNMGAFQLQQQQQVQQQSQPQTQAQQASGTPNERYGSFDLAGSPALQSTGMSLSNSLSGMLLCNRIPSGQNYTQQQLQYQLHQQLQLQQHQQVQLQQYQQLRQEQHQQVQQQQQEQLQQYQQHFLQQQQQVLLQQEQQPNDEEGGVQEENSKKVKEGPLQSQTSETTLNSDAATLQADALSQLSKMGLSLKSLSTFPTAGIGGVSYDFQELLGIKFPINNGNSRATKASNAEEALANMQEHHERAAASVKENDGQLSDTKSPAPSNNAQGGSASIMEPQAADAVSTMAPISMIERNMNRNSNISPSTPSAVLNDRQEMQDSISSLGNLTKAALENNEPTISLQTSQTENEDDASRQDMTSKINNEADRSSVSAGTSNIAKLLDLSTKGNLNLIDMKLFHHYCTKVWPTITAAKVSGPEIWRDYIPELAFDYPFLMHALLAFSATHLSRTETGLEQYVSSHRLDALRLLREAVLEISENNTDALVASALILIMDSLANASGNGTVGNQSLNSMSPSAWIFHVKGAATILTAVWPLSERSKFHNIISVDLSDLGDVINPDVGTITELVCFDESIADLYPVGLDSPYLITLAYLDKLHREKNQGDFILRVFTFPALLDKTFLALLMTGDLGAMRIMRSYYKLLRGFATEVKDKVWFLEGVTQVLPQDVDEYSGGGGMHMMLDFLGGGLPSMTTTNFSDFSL
# Assay: PBM E-score (8-mer binding enrichment) (E-score (-0.5 to 0.5)); higher = stronger / more preferred TF binding; most listed sequences are background and not binding sites
# Conditions: protein concentration: 200 nM; construct: GST-full length
# Protocol: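 Universal 'all 10-mer' protein binding microarrays (Agilent AMADID 015681) probed with GST-tagged S. cerevisiae TFs (full-length or DBD) made by in vitro transcription/translation (PURExpress), about 100-200 nM. Bound TF was detected with fluorescent anti-GST. Each ungapped 8-mer (which stands for itself and its reverse complement) is scored by the PBM enrichment score (E-score), a modified Wilcoxon-Mann-Whitney statistic from -0.5 to +0.5, computed with the Universal PBM Analysis Suite. Scale: above 0.35 generally sequence-specific binding.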
row,Sequence,PBM E-score
1,CGGGGACG,-0.191
2,TGGATGAA,0.00712
3,CGCCCCCG,-0.129
4,ACTTACGC,-0.0998
5,GACTCTGA,-0.295
6,GTCGGGGA,-0.188
7,AAGGCCCC,-0.105
8,GCAGGCGC,-0.0999
9,ATTCGAAC,0.119
10,GCGCACGC,-0.0747
11,CCAGCAAC,0.153
12,CGGATTTA,0.0862
13,AGAGGCAT,0.0179
14,AGACATAC,-0.0383
15,ACTCCGGC,-0.0468
16,GATGCTAA,0.068
17,AAGCATAA,-0.118
18,GACAACTA,-0.0195
19,ATCGTAGC,0.356
20,AAAGAGAC,-0.0897
21,ATGCATCG,0.133
22,AGCGTCCG,0.0285

row,Sequence,PBM E-score
1,AGTGTGAA,0.0175
2,GAATGTTA,-0.00277
3,AATTTAGG,0.0945
4,ACGGCGAC,0.142
5,GCACCCAA,0.0553
6,ATGGGTTG,0.102
7,CTAAGCAG,-0.156
8,TCAATCCA,0.0272
9,GCGATCAA,0.146
10,GTCATGTA,-0.0385
11,GATTGGCA,-0.107
12,CTACCCTC,-0.244
13,ACCAGCAA,0.0815
14,ACGAGCCT,0.396
15,AGCTAGAC,0.0183
16,CGTAGGCC,-0.107
17,GCCCTCGA,-0.144
18,AGCGTATC,0.166
19,GGACTTAC,-0.115
20,ATGAGATA,-0.077
21,CCCGTCTC,0.0208
22,TCCGAGGA,0.198

row,Sequence,PBM E-score
1,CCGGTCCG,-0.0341
2,CTCCGGTC,-0.0214
3,GAATGGCC,-0.202
4,CAGTCGTC,-0.106
5,CATCGAGC,-0.121
6,CCTCCTGA,-0.0709
7,GGCTCACA,-0.122
8,GACACGTA,0.117
9,CAGCGTAG,-0.0571
10,CATGTCGG,-0.0532
11,AAGGACCG,-0.107
12,AGCGTCTC,-0.245
13,CATTCAAG,-0.0014
14,CTACTTAA,-0.0179
15,AGTCCTAG,-0.308
16,CCTCCGTA,0.305
17,GAGTATGC,0.0431
18,TATTTCCA,0.033
19,CGGAGCCC,-0.215
20,AGAAGACA,-0.0398
21,AGGAGAGC,0.0146
22,CTATAGCA,-0.0859

row,Sequence,PBM E-score
1,AAGCGTTG,-0.0869
2,ACCGTGAC,-0.189
3,ACTTGACC,-0.0255
4,CGTGGTAC,0.0748
5,AAAAATGG,-0.0582
6,TCCATACA,-0.0698
7,ATACAGTA,0.15
8,CCGGGCAG,0.0011
9,CAGCCGCG,-0.0294
10,GCGGAAGC,-0.0169
11,AGTTGGCA,0.0278
12,ACTTCACT,-0.196
13,AATAAGGA,-0.11
14,ATTTAAAG,-0.0885
15,GCAATGAA,0.136
16,GTGATAGA,0.0335
17,CATTCCAC,-0.133
18,CTGCTCAA,-0.0997
19,AACCATAG,-0.204
20,GGCAAGCA,-0.0342
21,ACTGTGAC,-0.121
22,GGCTTAGA,-0.264

row,Sequence,PBM E-score
1,AACTCCAG,-0.142
2,CTGGGACC,-0.132
3,CCGCGATC,-0.0572
4,TGGACTAA,0.0432
5,ACACACGT,-0.0788
6,AGCAAAAA,-0.127
7,GGATGACA,-0.0406
8,ATCCAAGG,-0.255
9,CTTAGTTA,-0.0101
10,ACAGTCGG,-0.0363
11,TAACACGA,0.177
12,AGTCCTAA,-0.022
13,ACTCTGTG,-0.00359
14,CCACATCA,-0.125
15,AACCCCGG,0.00566
16,ATGGATTC,-0.116
17,ACCCCTGA,-0.07
18,AAGGTCAT,-0.0585
19,CGGTGCCC,-0.119
20,AATTGAGT,-0.0417
21,CTGTAACA,-0.134
22,AAAAAAGT,0.102
